Data as given in a compilation of properties of binary mixtures (doi:10.1007/s10953-013-9991-z).
Some of these densities may be calculated back from excess volumes.

Assay: xn = mol fraction of the nth substance listed
Details: 101 kPa

CN(C)C=O + CC[n+]1ccn(C)c1.F[B-](F)(F)F
x1 = 1
Details | mass density [kg/m3]
303.15 K | 939.8
308.15 K | 935.1

CNC=O + CC[n+]1ccn(C)c1.F[B-](F)(F)F
mass density [kg/m3]
Details | 293.15 K | 298.15 K | 303.15 K | 308.15 K
x1 = 0.0661 | 1278.2 | – | – | –
x1 = 0.0886 | 1276 | 1272 | 1268.5 | 1264.3
x1 = 0.1287 | 1272 | 1268 | 1264.5 | –
x1 = 0.1757 | 1267 | 1263 | 1259.5 | 1255.3
x1 = 0.2258 | 1261 | 1257 | 1253.5 | 1249.4
x1 = 0.2783 | 1254.2 | 1250.3 | 1246.7 | 1242.6
x1 = 0.3287 | – | 1243.1 | – | –
x1 = 0.3729 | 1240 | 1236.1 | – | –
x1 = 0.4259 | 1230.8 | 1226.9 | 1223.2 | 1219.2
x1 = 0.4766 | 1220.9 | 1217.1 | 1213.4 | 1209.4
x1 = 0.5291 | 1209.6 | – | 1202 | 1198
x1 = 0.5749 | 1198.6 | 1194.7 | – | 1186.9
x1 = 0.6252 | 1185.1 | 1181.2 | 1177.4 | 1173.3
x1 = 0.6773 | – | 1165.3 | 1161.5 | 1157.5
x1 = 0.7281 | 1151.9 | – | 1144 | –
x1 = 0.7744 | 1134 | – | 1126 | 1121.8
x1 = 0.8271 | 1110.7 | – | 1102.5 | 1098.2
x1 = 0.8782 | 1084.5 | 1080.1 | – | –
x1 = 1 | – | 999 | 994.7 | –

CC[n+]1ccn(C)c1.F[B-](F)(F)F + CN(C)C=O
mass density [kg/m3]
Details | 293.15 K | 298.15 K | 303.15 K | 308.15 K
x2 = 0 | 1283.9 | 1279.9 | 1276.3 | –
x2 = 0.0681 | 1275.7 | 1271.8 | – | –
x2 = 0.0903 | 1272.8 | 1269 | 1265.4 | 1261.3
x2 = 0.1257 | – | – | 1260.6 | 1256.6
x2 = 0.1717 | 1261.2 | – | 1253.9 | 1250
x2 = 0.2275 | 1252.2 | 1248.5 | 1244.9 | 1241
x2 = 0.2781 | 1243.2 | 1239.5 | 1235.9 | 1232.1
x2 = 0.3276 | 1233.6 | 1229.9 | 1226.2 | 1222.6
x2 = 0.3781 | 1222.7 | 1219.1 | 1215.4 | 1211.8
x2 = 0.4227 | 1212.3 | 1208.7 | 1204.9 | 1201.3
x2 = 0.4757 | 1198.7 | – | 1191.2 | 1187.7
x2 = 0.5258 | 1184.5 | – | – | 1173.5
x2 = 0.5697 | 1170.9 | 1167.2 | – | 1159.7
x2 = 0.6261 | 1151.5 | 1147.9 | 1143.9 | 1140.2
x2 = 0.6758 | 1132.7 | 1129 | 1124.8 | 1121.2
x2 = 0.7291 | 1110.2 | – | 1102.3 | 1098.5
x2 = 0.769 | 1091.7 | – | 1083.8 | 1079.8
x2 = 0.8268 | 1062.1 | 1058.3 | 1054 | 1049.8
x2 = 0.8789 | – | 1028.3 | 1023.9 | 1019.6

CC[n+]1ccn(C)c1.F[B-](F)(F)F + CNC=O
x2 = 0
Details | mass density [kg/m3]
293.15 K | 1283.9
298.15 K | 1279.9
303.15 K | 1276.3
308.15 K | 1272.1
